# From paper PMC4336329 (PLoS ONE, 2015)
# In all, about 310,000 compounds went through this assay and about 14,000 (4.5%) showed an effect of 50% or more. The effect is printed as a negative number. Some of the results follow.
# Biological target: human ether-à-go-go-related gene (hERG) potassium channel (human, UniProt Q12809)
# Experiment: primary screen, population patch clamp on CHO cells stably expressing hERG
# 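Also: peak tail current of the secondary pulse compared with the same well before compound.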
# human ether-à-go-go-related gene (hERG) potassium channel, sequence (Q12809 whole entry, looked up): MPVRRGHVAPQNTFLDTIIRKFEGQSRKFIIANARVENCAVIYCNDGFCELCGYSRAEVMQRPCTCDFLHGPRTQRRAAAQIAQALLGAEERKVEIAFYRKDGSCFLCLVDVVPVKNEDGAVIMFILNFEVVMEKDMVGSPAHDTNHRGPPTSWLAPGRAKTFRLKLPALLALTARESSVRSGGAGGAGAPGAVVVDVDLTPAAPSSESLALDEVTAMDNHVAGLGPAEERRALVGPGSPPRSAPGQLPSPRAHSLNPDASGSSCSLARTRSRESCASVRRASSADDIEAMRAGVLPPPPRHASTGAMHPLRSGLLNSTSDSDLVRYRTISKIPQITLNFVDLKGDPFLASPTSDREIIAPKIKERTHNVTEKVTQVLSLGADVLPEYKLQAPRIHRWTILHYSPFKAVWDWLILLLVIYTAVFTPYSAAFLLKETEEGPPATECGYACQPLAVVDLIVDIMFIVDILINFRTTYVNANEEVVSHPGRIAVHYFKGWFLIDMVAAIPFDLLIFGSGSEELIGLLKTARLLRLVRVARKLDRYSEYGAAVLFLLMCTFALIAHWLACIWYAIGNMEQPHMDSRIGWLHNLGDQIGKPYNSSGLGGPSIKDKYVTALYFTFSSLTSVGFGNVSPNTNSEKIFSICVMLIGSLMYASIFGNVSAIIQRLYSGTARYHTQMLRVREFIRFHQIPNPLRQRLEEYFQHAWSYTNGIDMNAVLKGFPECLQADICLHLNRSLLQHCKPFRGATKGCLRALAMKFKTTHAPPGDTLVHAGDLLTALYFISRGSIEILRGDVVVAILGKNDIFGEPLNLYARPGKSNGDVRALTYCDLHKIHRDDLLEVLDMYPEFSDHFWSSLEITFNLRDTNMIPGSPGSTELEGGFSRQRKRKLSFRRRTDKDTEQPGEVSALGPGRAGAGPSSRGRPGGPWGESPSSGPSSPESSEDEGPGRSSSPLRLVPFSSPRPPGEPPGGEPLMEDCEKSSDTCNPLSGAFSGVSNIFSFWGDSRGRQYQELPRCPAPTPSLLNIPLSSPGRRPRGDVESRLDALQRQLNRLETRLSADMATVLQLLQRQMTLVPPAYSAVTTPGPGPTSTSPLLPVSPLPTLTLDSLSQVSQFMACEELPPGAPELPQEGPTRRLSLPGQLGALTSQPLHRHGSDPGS
row,SMILES,"hERG current change (%, negative = inhibition) at 10uM"
1,COc1cc(C(=O)NCC(C)C)c([N+](=O)[O-])cc1OC,12.5%
2,O=C1CCCC(=O)C1=C1SCCS1,-3.42%
3,CCOc1ccc(N(CC(=O)NCc2ccc(Cl)cc2)S(=O)(=O)c2c(C)noc2C)cc1,12.1%
4,Clc1ccc(-c2nn3cnnc3s2)c(Cl)c1,-13.6%
5,O=C(CSc1nc2ccccc2n1Cc1ccccc1)N/N=C/c1ccccc1C(=O)O,-0.979%
6,O=C(NCCN1CCOCC1)c1ccc2c(c1)N(Cc1cccc(F)c1)C(=O)c1ccccc1S2,-19%
7,COc1ccc(Cl)cc1N(CC(=O)N1CCCC1)S(=O)(=O)c1ccc(C)cc1,-8.27%
8,C=CCn1c(=N)n(CC(O)c2ccco2)c2ccccc21.Cl (centres unmarked),-23.1%
9,CC(=O)c1cccc(NS(=O)(=O)c2ccc(NC(=O)N3CCCCC3)cc2)c1,15.6%
10,Clc1ncnc2scc(-c3ccccc3)c12,1.01%
11,CC1CCN(C(=O)CSc2nc3c(cnn3-c3ccccc3)c(=O)[nH]2)CC1,3.08%
12,CCOC(=O)c1c(NC(=S)NNS(=O)(=O)c2ccc(Br)cc2)sc2c1CCCCC2,20.1%
13,CCOc1ccc(NC(=O)Cc2nnc(SCC(=O)N3CCOCC3)n2C)cc1,9.37%
14,CCOc1cccc(NC(=O)/C(C#N)=C/c2cccnc2)c1,-35.4%
15,CCc1cccc(C)c1NC(=O)CSc1nnc(-c2ccco2)n1N,-3.1%
16,C(=N\Nc1nc2ccccc2[nH]1)/c1cccc2nccnc12,11.9%
17,Cc1ccccc1N(CC(=O)NC1CCCC1)C(=O)CS(=O)CC(=O)Nc1ccc2c(c1)OCO2 (centres unmarked),-8.74%
18,COc1cc(/C=C2\SC(=S)N(CC(=O)NC3=NCCS3)C2=O)cc(OC)c1OC,23.5%
19,Cc1ccc(C)c(C(=O)C(C)OC(=O)CN2C(=O)NC3(CC(C)CC(C)(C)C3)C2=O)c1 (centres unmarked),23.2%
20,O=C(CNC(=S)N(CCCN1CCOCC1)Cc1cccs1)NCCN1CCOCC1,9.17%
21,CCn1cc(/C=C/C(=O)c2ccc(O)cc2)c(C)n1,1.71%
22,CCOC(=O)Cn1c(=O)n(Cc2ccc(C)cc2)c(=O)c2cccnc21,2.71%
23,COc1ccc2nc(-c3ccccc3)cc(C(=O)OCC(=O)N3CC(C)OC(C)C3)c2c1 (centres unmarked),0.702%

row,SMILES,"hERG current change (%, negative = inhibition) at 10uM"
1,Cc1noc(C)c1S(=O)(=O)N1CCCC(C(=O)NCCc2ccc(Cl)cc2)C1 (centres unmarked),-9.43%
2,COC(=O)c1cc(OC)c(OC)cc1NC(=O)Nc1ccc(OC)cc1,7.34%
3,COCCN(C(=O)COC(=O)c1cc2c(s1)CCC2)c1c(N)n(Cc2ccccc2)c(=O)[nH]c1=O,-4.61%
4,COc1ccc(C(CCO)NC(=O)c2cccs2)cc1OC (centres unmarked),-1.34%
5,O=C(NCc1ccccn1)C12CC3CC(CC(C3)C1)C2,13.8%
6,COc1ccccc1C(CNC(=O)c1ccc(-c2ccccc2Cl)o1)N1CCCC1 (centres unmarked),-72.2%
7,COCC(=O)Nc1cccc2ccccc12,-9.72%
8,COc1ccc(Oc2cccc(Cl)c2CNC(=O)c2ccccc2C(=O)O)cc1,4.98%
9,Cc1ccc(-n2ncc(C#N)c2/N=C/N2CCOCC2)cc1,-10.2%
10,COc1ccc(CCn2c(NN=C3CCCC3)nc3c2c(=O)[nH]c(=O)n3C)cc1,-1.63%
11,CCOC(=O)C1=C(CP(=O)(c2ccccc2)c2ccccc2)NC(=O)NC1c1ccc(OC)cc1 (centres unmarked),-26.4%
12,Cc1ccc(NC(=S)NC(NC(=O)Cc2cccc3ccccc23)C(Cl)(Cl)Cl)cc1 (centres unmarked),12.1%
13,COCCCNS(=O)(=O)c1ccc(OC)c(Cl)c1Cl,0.957%
14,CC1(C)CC(=O)c2sc(NC(=O)Cc3cccs3)nc2C1,-0.976%
15,CC(NC(=O)CN1CCN(Cc2ccc(Cl)cc2)C1=O)c1ccc2c(c1)OCCO2 (centres unmarked),-10.4%
16,CCN(CC)c1nc(N)c2c(N)n(-c3ccccc3C)c(=S)c(C#N)c2c1C#N,10.1%
17,NNC(=S)NC1CC2CC1C1C=CCC21 (centres unmarked),9.2%
18,COc1ccccc1N1CC(C(=O)Nc2nnc(SC)s2)CC1=O (centres unmarked),16.9%
19,O=C(CCN1CCOCC1)NNC(=O)Nc1cccc(Cl)c1,21.2%
20,CCOC(=O)C1=C(C)NC(=O)NC1c1ccc2c(c1)OCO2 (centres unmarked),-2.72%
21,COc1ccc(NC(=O)Nc2cnccn2)cc1,9.12%
22,COc1ccccc1C(=O)Nc1ccc(NC(=O)c2ccco2)cn1,9.25%
23,COc1ccccc1N(CC(=O)Nc1ccccc1C)S(C)(=O)=O,-0.331%

row,SMILES,"hERG current change (%, negative = inhibition) at 10uM"
1,O=C(NC1CCCCCC1)c1cccnc1Sc1ccccc1,-15.4%
2,Br.CC(Sc1nnc(COc2ccc3ccccc3c2)n1C)C(=O)O (centres unmarked),8.48%
3,Cn1cccc1C(=O)NC(=O)COC(=O)C12CC3CC(CC(O)(C3)C1)C2,3.15%
4,COc1ccc(NC(=O)c2ccc3c(c2)C(=O)N(CC2CCCO2)C3=O)cc1O (centres unmarked),-16%
5,COc1ccc(N2C(=O)CSCC2=O)cc1OC,8.4%
6,COc1ccc(NC(=O)c2ccc(-n3nc(C)c[n+]3[O-])cc2)cc1,0.163%
7,CC(C)CC(CO)N1CCN(C(=O)c2cccc(C(F)(F)F)c2)CCC1=O (centres unmarked),6.77%
8,COc1cc(NC(=S)NC(=O)C(C)C)ccc1NC(=O)c1cc2ccccc2o1,-1.06%
9,Cc1nc(NC(=O)C2CC2)sc1C(=O)Nc1ccccc1,11.6%
10,COc1ccc(OCC(=O)N/N=C/c2ccc(OC)c(OC)c2C(=O)O)cc1,-0.0673%
11,CCOC(=O)C1CCN(CC(O)COCc2cccs2)CC1 (centres unmarked),-38%
12,CCC(C(=O)Nc1sc(C(N)=O)c(C)c1C(=O)OC)c1ccccc1 (centres unmarked),-17.5%
13,CCC1(c2ccc(F)cc2)NC(=O)N(CC(=O)NCc2ccc(C)cc2)C1=O (centres unmarked),7.48%
14,CC(C)CN1C(=O)C(=O)N(CC(=O)c2ccc3c(c2)OCO3)C1=O,-12.4%
15,COc1ccc(C2CC(O)(C(C)(C)O)NO2)cc1 (centres unmarked),8.55%
16,O=C(O)/C(=C\c1ccccc1)c1ccc2ccccc2c1,8.85%
17,O=C(CN1C(=O)C2CCCCC2C1=O)Nc1ccc(S(=O)(=O)Nc2ncccn2)cc1 (centres unmarked),29.9%
18,CS(=O)(=O)N(CC(=O)N/N=C/c1cc([N+](=O)[O-])ccc1Cl)c1ccccc1,13.3%
19,COc1cccc(CC(NC(C)=O)C(=O)NC2CCN(C(=O)C3CC3)CC2)c1OC (centres unmarked),24.3%
20,CC(C)(C)C(=O)N1CCN(c2nc3ccccc3o2)CC1,-19.3%
21,Cc1ccsc1C(=O)C1CCCN(Cc2cccn2-c2ccc(Cl)cn2)C1 (centres unmarked),-77.6%
22,Cc1ccccc1C(=O)N1CCC(C(=O)Nc2ccc(F)cc2)CC1,-9.14%
23,CC(=O)C[C@H]1c2ccccc2S(=O)(=O)N1C1CCCCC1,-4.43%

row,SMILES,"hERG current change (%, negative = inhibition) at 10uM"
1,C=CCn1c(=S)[nH]c2sccc2c1=O,11.7%
2,Cl.NCCCC[C@H](NC(=O)C1CCNCC1)c1nnc([C@@H](N)CO)o1,22%
3,Cc1cc(C)cc(OCC(=O)O/N=C(\N)c2ccccc2Cl)c1,-13.6%
4,CC(=O)Nc1ccc(NC(=O)c2ccccc2N(C)S(=O)(=O)c2ccc(C)cc2)cc1,-0.403%
5,CCOC(=O)C1CCN(S(=O)(=O)c2ccc(OCC(=O)OC)cc2)CC1,-9.54%
6,COC(=O)CNC(=O)CSc1nnc2cc(C)c3ccccc3n12,-1.23%
7,O=C(NCc1ccccn1)c1cc(Cl)ccc1OCc1ccccc1,-35.5%
8,COc1ccc(NC(=O)Cn2cccc2)cc1Cl,1.53%
9,O=C(/C=C/Nc1ccccc1)c1ccccc1,-0.634%
10,O=C(Nc1ccccc1)N(c1ccccc1)C1C=CS(=O)(=O)C1 (centres unmarked),9.87%
11,CN(C)CCNC(=O)Nc1ccc(Cl)c(Cl)c1,-23.4%
12,COc1ccccc1NC(=O)NC1CCCc2ccccc21 (centres unmarked),10.9%
13,CCCC1=NN2C(=N)/C(=C\c3cc(C)n(-c4cc(C)cc(C)c4)c3C)C(=O)N=C2S1,-10.4%
14,COc1ccccc1NC(=O)CCN1C(=O)c2ccccc2S1(=O)=O,6.41%
15,Cc1ccccc1NC(=O)CC1SC(=O)N(c2ccccc2)C1=O (centres unmarked),15.6%
16,Cc1ccc(OC(=O)c2sc3ncn(C)c(=O)c3c2C)cc1,-0.804%
17,CSc1ccc(/C=N/Nc2nc(C)cc(=O)[nH]2)cc1,-34.1%
18,Cc1cc(NC(=O)c2ccco2)ncc1NC(=O)Cc1ccccc1,-14.4%
19,CC[C@@]1(c2ccccc2OC)ON(c2ccccc2C(F)(F)F)C1=O,6.93%
20,C1COCCO1.O=C(Nc1nc(-c2ccc(S(=O)(=O)N3CCOCC3)cc2)cs1)c1ccccc1,1.09%
